Results reported in the supplement of paper PMC10126150.
Values marked as one replicate rest on one cluster of the flow cell; about a third of the high ones do not repeat.

Test system: ATP
Assay: switch fluorescence ratio, 500 uM ATP over buffer (Cy3 cluster intensity, sum of 5 cycles each) (fold (ratio)); higher = stronger signal-on switching upon ATP binding; sequences stand for … in TCGTCGGCAGCGTCAGATGTGTATAAGAGACAGTTTTTTTTTTTTTTTTTTTTTTTTT…TC
Conditions: aptamer strand: ATP DNA aptamer (quencher-CACCTGGGGGAGTATTGCGGAGGAAGG + anchor), 100 nM annealed; ATP concentration: 500 uM; one replicate
Summary of the method: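 For every switch-domain sequence, the fluorescence ratio is the mean of per-cluster values, each being summed target-cycle Cy3 intensity over summed buffer-cycle Cy3 intensity. Clusters outside 100-1000 RFU were excluded. On a modified Illumina MiSeq flow-cell, the Cy3-labelled switching-strand clusters were annealed to 100 nM quencher-labelled ATP aptamer, imaged in selection buffer and then after 15 min with 500 uM ATP at 22 °C. Five such cycles were run, with NaOH stripping and re-annealing between them.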
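Note: ATP exposure 15 min at 22 °C before imaging.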

Sequence	switch fluorescence ratio
CATTAGTGTT	1.02
TCGTAGCTCT	1.06
GTCAGTACCT	1.21
ATTCCGGTAG	1.08
AACAGCTGT	1.01
CAGGGTAAAG	1.02
TTAGCTGGCC	1.01
GCATGGATTA	0.991
AAGTTGGCTG	1.01
GCAGGAGGAG	1.01
TCAATGCCCT	1.03
TTCTGACTGC	1.12
TTCGTGCGGG	0.983
CATGCTAGTC	0.969
ATGGGTAGGT	1.02
TGTGGGTCCC	1.01
ACAATAGGCT	1.02
TTCTTCACTG	1.01
TTATGTCGGG	1
GTATTAATTG	1.05
TTATTATAAA	1.05
AAGTTCCTTT	1
AGAGCAGCAG	0.997
GGGAGGCTTG	1.05
GGTAATCGCG	0.974

Sequence	switch fluorescence ratio
GGAAGGGAGC	0.999
ACCGGAGTTG	1.04
TATGACTGG	1.03
GGAGTCTGTG	0.965
CAGTCAAATT	1.01
ACTCGAGACG	1.07
GGCGGTCGT	1.01
GACTTATAGT	0.973
GGCTACTGTG	1.03
GAGATGGAGC	0.974
TTTGGGACCA	1.03
GTTTGAATCT	1.05
CATTGAAAAG	1.01
CGTTGGATTT	1.01
GTATGTTGAG	1.01
GCGCATCGTT	0.966
TATTTTTCTG	1
TTGACATTGT	1.02
ACCGGGAGCG	1.05
ATGGTCGTGT	1.01
TGCAATCGCT	4.44
CAGGATCCTG	1.01
CGGAGCACGG	2.65
GCGGGGAGTA	1.04
TTCCATGAGG	1

Sequence	switch fluorescence ratio
TAGGGGGAGG	0.977
ATGTGGCGG	0.977
GGCTCTCGAG	1.03
GGCTAACTCT	1
TGGGAAACAA	0.994
GAGTCCGGCA	1.27
CTGCAGGGTT	1.02
ACTGTGACA	1.3
GAGACCCAGT	1
GAAATGGCTT	0.961
AGATGTGTCA	0.948
ACGATATTTC	1.05
CATATAGGCG	1.06
TCCCTGTGGC	0.983
GGTCAGGGGG	0.975
CTAGTGTTCG	0.994
ACGCGCCCTT	0.937
TATCCGGCGG	1.01
GCTTCTGCGG	1.04
TGTGAAAATA	0.966
CACCATAACC	1.13
CAGGAGCTGG	1.03
CCTTCACATC	2.89
GTTGGCCCGC	1.04
CCGAGCGCAG	1.77

Sequence	switch fluorescence ratio
TACGGCCAGC	1.07
AGCATGGCT	0.948
AGTATGTACC	1.07
TACTTCTGGT	1.01
TAGCTTACTC	2.96
CCCACCCGG	1.17
CTCTCGAGCC	1.05
CATAGTGCAG	1.04
ACTTAGGAAC	0.992
CCTCGTGGAT	1.13
GCTTGGCAGA	1
TCCACCTATT	1.07
AGAGGGGCCT	0.992
ACAAGGGGAT	1.01
ACCAGTATAG	1.02
ATCACTCATC	1.07
GATTCGGGTT	0.96
GATAAGACGG	1.01
TGAGTATCGG	1
ATCAGTCCAC	1.02
TTTGTTCAAT	1.04
GCACGAAACT	1.17
CAATGGTGCC	1
CGTTCGCCCG	0.954
GCAGGTTTAG	0.974

Sequence	switch fluorescence ratio
ACAATTTGTG	1.02
TCACTGGGCA	1.02
GCATTGAACA	1.02
TCGAACCGCG	0.995
ATACTGCTGG	1.05
TTTAAGAACT	1.08
TACGTTGGGT	0.962
ACTATTATGG	1.02
AATGTGAGAG	1.01
AACTCCGGGG	0.995
CCCCAGCATA	6.13
GGCGAGGGGA	1.04
GAAGCTCAAT	1.06
AGACGGACCC	1.39
TCTTGGCGTA	1.04
AAGAGTCTCG	0.96
TAAATTCCTT	1.03
GGGCGGGCGG	1
TCTACTGCTC	1.09
AAGGCGTCGT	0.953
ATTGCAAGTG	0.97
ACTACACTGT	1.33
GCCAGAATAT	1.05
TATGGGGCGA	1.01
CTGTATAATT	1.01

Sequence	switch fluorescence ratio
AGGTCTTGCG	0.993
AGGCCGCGCT	1.03
TGTGATTGCT	0.931
TCCGGCCATA	1.53
CTCGTTGGCC	1.06
TGGCCAAGGG	0.991
TACCGGAAGC	1.09
CACATGATCT	1.05
AAGAATATGG	0.962
GTTCAGGCGC	1.03
TCGATTGCT	0.976
TCGGCCGGTT	1.03
TCGGGCTGCT	1.03
CTAGTCAACA	0.989
CGATTCATT	1.02
CGAGAGGTAC	1.06
TGTTTGAGCT	1.02
GACGCTTATG	0.996
CCGCATAAAG	2.48
CGGTTATAGC	1.03
CCACGGGGCG	1.02
GCCTTCTCTC	1.31
ATAGATGTTA	0.981
CGCGGAGACC	1.05
CAGAAAAACG	1.03

Sequence	switch fluorescence ratio
ACGATATCTT	1.11
ACGTGTGAAG	0.991
AGGTGAAGTA	0.963
TTGCAGGTAG	1.18
ATTTACTTCC	1.59
GGAGGGCGGA	1.05
TTTCACCATC	0.989
GGGTCCCATC	1.06
ATAAAATAGT	1.03
CAAAGTACTC	1.32
GGAATGGACT	1.02
GATCGCATGG	0.984
AGCTACTG	1.04
CCAGTCTACC	1.03
TGTATTGCCT	1.01
ATCAATCGTG	1.03
CGGGCGATTG	0.968
TCACTTGTAT	1.02
TCATGCGGT	0.96
ACTGGTTAAA	0.981
ATGTTCAT	1.03
AGAATTTGAG	0.99
AATCGACTCC	1.5
TAAGTTTAGG	0.987
ATATGCGACG	1.05

Sequence	switch fluorescence ratio
ACCATGCCTA	0.993
AAAGCATTTC	1.21
CTAGAGAGTC	1.07
AGCTATAATG	1.06
ACGAATATTC	1.01
GCCATTTTTG	0.993
TGTTCTCGT	0.947
GCATTATTTC	1.02
CGTGTTTCC	1.1
AGCTGCTGCG	0.929
GCGGCGTGTA	1.01
TATCTGTGCG	1.01
AGACTTCGA	1.06
CTGCGCATTG	2.52
AATAATCGGA	1.01
TCTTAAGGTT	0.978
TTAACTGTCT	0.972
CGGGGAGTA	1.02
AAGGTTATGG	1.03
GTGAAACTTT	1.04
TGGGGAATTA	0.999
GTTGGGAACA	0.966
GGCCCAGTAA	0.999
GCGAGCGAAC	1.08
CGCCGATATG	1.06
